For 94 compounds, inhibition results are on record in PubChem BioAssay AID485344 (National Center for Advancing Translational Sciences (NCATS), 2010).

Out of some 340,000 compounds screened, about 6,900 (2%) were called active. No stated cut-off is given here; in the data, active means inhibition above about 30%; inactive means below that, where a call was filed. The list shows a part of the results, in another mix than the full data. Where no call is shown, the source filed none.

The inhibition is the drop in the measured response relative to a control, in per cent.

The assay addresses D(2) dopamine receptor (Homo sapiens) (UniProt P14416). As to the kind of experiment: HTS Assay for Allosteric Antagonists of the Human D2 Dopamine Receptor: Primary Screen for Antagonists. Further: 0% is about no effect. The note with it: HEK293 TREx D2 cells, calcium flux, dopamine EC80; at 10 µM; stronger effect = higher value. Summed up: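 Measurement of antagonist activity uses fluorescent calcium dye in inducible HEK293 T-REx D2 cells: 10 s baseline, compound addition with 180 s read, EC80 dopamine addition with a further 180 s read.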
Sequence of UniProt P14416 (P14416 whole entry, looked up): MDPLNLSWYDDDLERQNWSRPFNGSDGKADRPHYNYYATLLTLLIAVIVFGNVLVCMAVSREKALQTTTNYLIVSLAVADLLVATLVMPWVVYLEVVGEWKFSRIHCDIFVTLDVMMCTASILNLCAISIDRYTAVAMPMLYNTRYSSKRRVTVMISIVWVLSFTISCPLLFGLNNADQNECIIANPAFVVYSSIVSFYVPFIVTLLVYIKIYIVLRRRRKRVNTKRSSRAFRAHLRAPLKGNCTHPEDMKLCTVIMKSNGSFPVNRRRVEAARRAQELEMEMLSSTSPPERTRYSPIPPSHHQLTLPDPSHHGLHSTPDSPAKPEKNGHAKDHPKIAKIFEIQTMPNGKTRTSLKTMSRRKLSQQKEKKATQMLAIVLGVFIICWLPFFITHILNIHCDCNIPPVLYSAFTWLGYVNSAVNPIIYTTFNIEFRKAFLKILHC
(In general: Calcium assays in cells follow changes in intracellular calcium, usually with a dye or a luminescent sensor.)
As to `COc1cc2c(cc1NC(=O)C(C)Oc1ccccc1)oc1ccccc12` (centres undefined), the inhibition was determined as 3.7%.

Consider `Cc1cc(C)c2c(N)c(C(=O)Nc3ccccc3C(F)(F)F)sc2n1`, for which the inhibition was -5.28%. The figure for `O=C(NCc1ccc(Cl)cc1Cl)c1cccc(N2CCCS2(=O)=O)c1` is 10.8%; for `CCn1cc2nc(SCc3cccc(C(F)(F)F)c3)n(Cc3ccc(C)cc3)c(=O)c2n1` it is -0.472%. Under `Cc1cc(F)ccc1NC(=O)c1c(C)oc2c1C1=NCCN1C=N2` stands -13.5%. Under `CCOC(=O)N1CCC(NCCNC(=O)c2ccccc2Cl)CC1` stands active: 56.3%; under `COc1ccc(-c2cc(C(=O)Nc3cnn(Cc4ccc(F)cc4)c3)no2)cc1OC`, 14.4%. Turning to `Cc1ccccc1NC(=O)Cn1nnc(-c2ccc(CN3CCC(C)CC3)cc2)n1`, the inhibition was active: 33.3%.

With `O=C(Cc1c(C(=O)O)[nH]c2ccccc12)Nc1cccc(C(F)(F)F)c1`, the inhibition turned out to be 5.24%. The figure for `CCOc1ccc(OCC)c(NS(=O)(=O)c2ccc3c(c2)CCN3C(=O)C2CCC2)c1` is 12.1%; for `Cc1c(Cl)ccc2sc(N3CCN(C(=O)CS(=O)(=O)c4ccccc4)CC3)nc12` it is -13.7%. The figure for `CCOc1ccc(CNC(=O)Cn2c(=O)c3cccn3c3ccccc32)cc1` is 4.04%; for `CCCN1CCN(CCCNC(=O)c2c(C)nn(-c3ccc(F)cc3)c2-n2cccc2)CC1` it is 4.67%; for `O=C(Nc1ccccc1Br)N1CCC(CN2CCCC2)CC1` it is 1.69%. Under `Cc1ccc(OCC(=O)Nc2ccc(-c3nc4ccccc4o3)cc2)c(C)c1` stands -2.32%.

For the compound `CCC(=O)N1CCc2cc(S(=O)(=O)NC(C(=O)Nc3cc(OC)cc(OC)c3)C(C)C)ccc21` (centres undefined), the inhibition was -13.8%. Under `CCc1ccc(C(=O)NC2=NC(c3ccccc3F)CC(=O)N2)cc1` (centres undefined) stands 5.3%; under `CCOC(=O)c1c(NC(=O)c2ccc(C)c(C)c2)sc2c1CCCCC2`, 14.7%. The figure for `COCCCNC(=O)c1ccc2nc(CCc3ccccc3)oc2c1` is 5.54%; for `O=C(Nc1ccc(Cl)cc1)N1CCC(c2nc(-c3ccccc3Cl)no2)CC1` it is active: 31.2%; for `COC(=O)c1cc2oc3ccccc3c2n1CC(=O)Nc1ccc(C)cc1C` it is 19.7%. The figure for `CN(C)CCNC(=O)c1ccc2c(c1)N(Cc1c(F)cccc1Cl)C(=O)c1ccccc1S2` is 3.61%. On to `CCOC(=O)Cn1c(=O)oc2cc(S(=O)(=O)N3CCN(c4cc(C)ccc4C)CC3)ccc21`, for which the inhibition was -5.87%. Under `Cc1nnc(N2CCCC(C(=O)NCCc3ccccc3)C2)c2nn(-c3ccccc3)c(C)c12` (centres undefined) stands -12.5%. Under `Cc1cc(C)c(NC(=O)Cn2c(=O)n(Cc3ccc(C(=O)NCc4ccco4)cc3)c(=O)c3sccc32)c(C)c1` stands 15.6%; under `Cc1ccc(S(=O)(=O)c2nc(-c3cccc(Cl)c3)oc2NCc2ccccc2)cc1`, -8.08%; under `Cc1nc2c(c(C)nn2-c2ccccc2)c(C)c1CCC(=O)NCc1ccccc1`, -6.26%.

Turning to `CCc1cccc(NC(=O)C2CCN(S(=O)(=O)c3cccc(-c4noc(C)n4)c3)CC2)c1`, the inhibition was -14.5%. Under `CCN1CCN(c2cc(C)c3cc(NC(=O)c4ccc(OC)c(OC)c4)ccc3n2)CC1` stands 3.51%.

Consider `CCN1CCN(Cc2c(O)ccc3cc(-c4ccc(OC)cc4)c(=O)oc23)CC1`, for which the inhibition is -2.52%. The figure for `COc1ccc(C)cc1Nc1nc(N)c2cc(OC)c(OC)cc2n1` is 10.1%; for `CC(=O)c1cccc(NC(=O)c2nc(-c3ccccc3)n(-c3ccccc3C)n2)c1` it is 8.59%. The figure for `COc1ccc(C2c3cccn3CCN2S(=O)(=O)c2ccc([N+](=O)[O-])cc2)cc1` (centres undefined) is 18.5%; for `O=C(NCC1CCCN(Cc2ccccc2F)C1)c1cccc(C(F)(F)F)c1` (centres undefined) it is active: 31.5%.

For `CCC1CN(C(=O)C2CCN(S(=O)(=O)c3c(C)noc3/C=C/c3ccccc3F)CC2)c2cc(C)ccc2O1` (centres undefined), the inhibition is -22.2%. With `Cn1c(CCC(=O)O)nc2cc(S(=O)(=O)N3CCCCC3)ccc21`, the inhibition is active: 32.5%.

As to `COCCN1CCN(Cc2ccc(C(=O)NC(C)C)cc2)C(=O)C1=O`, the inhibition was found to be 7.5%. The figure for `CCCCn1c(SCC(=O)NCc2ccc(C)cc2)nc2c(sc3ccccc32)c1=O` is 8.07%; for `COc1ccc(CNC(=O)C(C)n2c(=O)cc(C)c3c(C)nn(-c4ccccc4)c32)cc1` (centres undefined) it is -11.2%. Under `COc1ccc(NC(=O)c2oc3ccccc3c2NC(=O)Cc2cccs2)c(OC)c1` stands -8.74%.

Regarding `COc1ccc(N(CC(=O)NCCc2ccc(Cl)cc2)S(=O)(=O)c2c(C)nn(C)c2C)cc1`, the inhibition worked out at 1.49%. The figure for `COc1ccc(N2CCN(C(=O)Nc3ccc(S(=O)(=O)N(C)C)cc3)CC2)cc1` is active: 41.1%.

For the compound `Cc1ccc(Sc2ccc(N3CCCC(C(=O)Nc4ccc(F)cc4F)C3)nn2)cc1` (centres undefined), the inhibition is 9.17%.

`CCOC(=O)C1CCN(C(=O)c2nn(-c3ccc(OC)cc3)c(=O)c3c2c2ccccc2n3C)CC1`: the inhibition is 11.8%.

Consider `CC1CCN(CC(=O)N2CCc3ccccc32)CC1`, for which the inhibition is active: 53.6%.

For `Cc1ccc(-c2noc(-c3nnn(CC(=O)Nc4cc(Cl)ccc4C)c3N)n2)cc1`, the inhibition worked out at 6.8%. The figure for `Cc1nn(C)c2c1c(C(F)(F)F)cc(=O)n2CC(=O)N1CCC(C)CC1` is 11.2%; for `Cc1ccc(CSc2nc3cccnc3n2Cc2ccc(C(=O)NCCc3cccs3)cc2)cc1` it is -6.37%; for `O=C(NC1=NCCS1)c1cc(-c2cccnc2)nc2ccccc12` it is active: 33.2%. The figure for `CC1CCN(S(=O)(=O)c2cc(C(=O)N3CCN(c4ccccc4F)CC3)n(C)c2)CC1` is 0.372%; for `COc1ccc(CN2CCCN(CC(=O)Nc3ccc4c(c3)OCCO4)S2(=O)=O)cc1` it is -8.79%; for `COc1ccc(C2CC(=O)N(CC(=O)Nc3cccc(C)c3C)c3ccccc3S2)cc1OC` (centres undefined) it is 24.5%. As for `Cc1ccc(C(=O)N2CCC(C(N)=O)CC2)cc1NC(=O)c1nsc2ccccc12`, the inhibition is -27.5%.

On to `COc1ccccc1CNC(=O)CCCn1c(=O)c2ccccc2n(Cc2ccc(C)cc2)c1=O`, for which the inhibition was 0.0126%. The figure for `COc1ccc(-n2nc(C(=O)N3CCN(c4cccc(C)c4)C(C)C3)c3c4ccccc4n(C)c3c2=O)cc1` (centres undefined) is -3.83%. The figure for `CCCn1ccc2c(OCC(=O)Nc3ccc(F)cc3F)cccc2c1=O` is -3.47%. The figure for `Cc1cccc(OCC(=O)Nc2ccc3c(c2)N(C)C(=O)c2ccccc2S3)c1` is 5.3%; for `NC(=O)C1=C[C@H](c2ccc3c(c2)OCO3)C[C@H](OCc2ccc(CO)cc2)O1` it is active: 33.1%; for `Cc1cccc(NC(=O)CSc2nc3c([nH]c4ccccc43)c(=O)n2-c2ccc(F)cc2)c1C` it is -12.7%. In the case of `COc1ccc(NC(=O)c2ccco2)cc1NC(=O)COc1ccccc1Cl`, the inhibition was 11.4%. For the compound `Cc1ccc(C(=O)N/C(=C\c2cn(S(=O)(=O)N(C)C)c3ccccc23)C(=O)NCCCn2ccnc2)cc1`, the inhibition came out at 0.556%. The figure for `COc1ccc(C(=O)N2CCC(C(=O)Nc3ccccc3Cl)CC2)cc1` is 16.9%. The figure for `CCCn1cc(S(=O)(=O)c2ccccc2)c(=O)c2cc(F)c(N3CCCC3)cc21` is 3.43%; for `COc1ccc(S(N)(=O)=O)cc1C(=O)NCCCN1CCN(c2cccc(Cl)c2)CC1` it is active: 49.6%; for `CCc1ccccc1NC(=O)c1cc(S(=O)(=O)NC2CCCC2)ccc1F` it is -12%. The figure for `CCN1CCN(CCOCCOc2ccccc2-c2ccccc2)CC1` is active: 60.1%. For `Cc1ccc(NC(=O)Cn2cc(S(=O)(=O)N3CCCC3)c(S(=O)(=O)N3CCCC3)c2)c(C)c1`, the inhibition was -0.96%. Under `O=C(NCCc1ccc(Cl)cc1)c1cccn1-c1nnc(N2CCCC2)s1` stands 7.8%. Under `COCCn1c(C)cc(C(=O)Cn2nc(C(=O)O)c3ccccc3c2=O)c1C` stands active: 32.4%. The figure for `CCOc1ccccc1N(C)C(=O)NCc1noc2ccccc12` is 4.75%. As for `CCOc1ccccc1NS(=O)(=O)c1ccc2oc(=O)c3ncn(C)c3c2c1`, the inhibition amounted to 0.32%. Under `CCn1cc(C(=O)NC(C)c2ccccc2)c(=O)c2cc(S(=O)(=O)N3CCc4ccccc4C3)ccc21` (centres undefined) stands 2.3%. Under `Cc1ccc(-n2nc(C)c3nc(CCC(=O)Nc4ccc(F)cc4)c(=O)n(C)c32)cc1` stands 6.75%. Under `COc1ccccc1NC(=O)C1=C(C)Nc2ncnn2C1c1ccccn1` (centres undefined) stands -3.08%; under `CC(C)Sc1ncc(Cl)c(C(=O)Nc2ccc(S(=O)(=O)N3CCCCC3C)cc2)n1` (centres undefined), 14.6%. With `COc1ccc(OC)c(CNC(=O)c2cccc(NC(=O)N3CCSc4ncccc43)c2)c1`, the inhibition worked out at 2.54%.

As for `Cc1ccc(C)c(N(CC(=O)NC2CCCC2)C(=O)CCC(=O)Nc2cc(C)on2)c1`, the inhibition is active: 36.3%.

For `COc1ccccc1N1CCN(CC(=O)Nc2ccc(Cl)c(C(F)(F)F)c2)CC1`, the inhibition is active: 80.7%.

Regarding `O=c1c2oc3ccccc3c2n(Cc2cccc(C(F)(F)F)c2)c(=O)n1Cc1ccc2c(c1)OCO2`, the inhibition is -5.96%. Consider `Cc1cccc(C(=O)Nc2cccc(C(=O)OCc3cc(=O)n4ccsc4n3)c2)c1`, for which the inhibition came out at 15.2%. The figure for `CCOC(=O)c1ccc2ncc(C(=O)OCC)c(Nc3ccc(C)c(Br)c3)c2c1` is -22.6%; for `CCC(C(=O)NCc1ccccc1)n1ncn2c(cc3occc32)c1=O` (centres undefined) it is -0.348%; for `Cc1ccc(NC(=O)c2cc3c(=O)n(Cc4cccnc4)ccc3nc2C)cc1F` it is 1.24%. Under `COc1ccc(Br)cc1CNC(=O)CN1C(=O)CSc2ccc(S(=O)(=O)N3CCOCC3)cc21` stands 6.32%; under `COc1ccc(OC(C)C(=O)NCc2nc(-c3ccc(Cl)cc3)no2)cc1` (centres undefined), -23.9%; under `COc1ccc(NC(=O)CNS(=O)(=O)c2cccs2)c(OC)c1`, -22.1%. Under `CCOC(=O)c1cccc(NC(=O)c2cc(-c3ccc(Cl)s3)nc3ccccc23)c1` stands -1.89%; under `O=C(NCCc1ccccc1)c1ccc(CSc2nc3ccncc3n2Cc2ccccc2)cc1`, -2.6%. As to `Cc1ccc(NC(=O)CSc2nc(C)cc(C)c2C(=O)Nc2cccc(C)c2)cc1`, the inhibition is 3.84%.

As for `COc1ccc(NC(=O)Cn2ncc3c([nH]c4ccccc43)c2=O)cc1Cl`, the inhibition is 11.4%. The figure for `CCN(CC)CCCNC(=O)c1cn(C)c2ccc(S(=O)(=O)N3CCOCC3)cc2c1=O` is 11.5%; for `O=C(NC1CC2CCCC(C1)N2Cc1ccccc1)c1ccc([N+](=O)[O-])cc1` (centres undefined) it is active: 86.6%.

In the case of `COc1cc(OC)cc(C(=O)Nc2ccc(S(=O)(=O)Nc3onc(C)c3C)cc2)c1`, the inhibition was 10.7%. Under `O=C(Cn1nc(C(F)(F)F)c2c1CCCC2)Nc1ccc(Cl)cc1` stands -3.23%.
